Test results published in PubChem BioAssay AID1631 (National Center for Advancing Translational Sciences (NCATS), 2009).
Among all 260,000 compounds or so, about 890 (0.34%) were called active. The shares of active, inactive and inconclusive entries below differ from those in the screen. The call rests on the fitted dose curve; in most records, active means well fitted activation curve with a large enough effect; inconclusive means small, poorly fitted or top-dose-only effect; inactive means no such curve, though single readings can be large or run the other way. A potency beside an inconclusive call is a rough fit, not a confirmed value.

The compounds below were run against Pyruvate kinase PKM (Homo sapiens) (UniProt P14618) (assay: qHTS Assay for Activators of Human Muscle isoform 2 Pyruvate Kinase). Details: purified PKM2, Kinase-Glo ATP luminescence; Potency: activation; activation: at 57.5 µM (top of the series), 0% is enzyme alone, no compound.
UniProt P14618, sequence (P14618 whole entry, looked up, canonical isoform): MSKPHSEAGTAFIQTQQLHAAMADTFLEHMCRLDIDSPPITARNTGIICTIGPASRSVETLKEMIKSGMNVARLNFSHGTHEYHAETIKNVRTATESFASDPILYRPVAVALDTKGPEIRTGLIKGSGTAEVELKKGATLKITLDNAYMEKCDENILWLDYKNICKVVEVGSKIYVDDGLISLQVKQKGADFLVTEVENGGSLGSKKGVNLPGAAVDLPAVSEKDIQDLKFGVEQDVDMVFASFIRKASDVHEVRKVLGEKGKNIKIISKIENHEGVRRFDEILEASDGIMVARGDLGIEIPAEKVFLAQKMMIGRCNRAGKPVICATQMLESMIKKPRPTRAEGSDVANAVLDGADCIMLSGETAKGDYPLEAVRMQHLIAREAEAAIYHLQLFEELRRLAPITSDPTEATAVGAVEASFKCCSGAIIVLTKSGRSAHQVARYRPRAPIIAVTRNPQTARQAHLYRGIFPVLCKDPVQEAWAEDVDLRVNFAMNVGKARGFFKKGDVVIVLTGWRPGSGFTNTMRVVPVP
Method in brief: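 hPK-M2, >95% pure; 0.1 mM ADP / 0.5 mM PEP final; imidazole pH7.2 buffer w/ 7 mM MgCl2, 50 mM KCl; 1 h RT; Kinase-Glo lum. Intermediate enzyme activity for dual inhibitor/activator qHTS.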
Further: nearly all actives have a fitted effect of over 55% in size.
On the % scale 0 is the no-effect control and ±100 the full control effect; potency means the concentration at half of the fitted maximal effect; tags describe the fitted curve by direction and shape.

activation, inactive:
C[C@H]1Cc2c(COc3ccccc3)nc3c(c2CO1)CN(C(=O)c1ccco1)CC3 -0.0052% [at 11.5 µM, 0% is enzyme alone, no compound]

Potency, active:
O=S(=O)(c1ccc(OCC(O)CNCc2ccco2)c(Cl)c1)N1CCOCC1 (configuration not stated) 3.98 µM

Potency, inconclusive:
O=C1COc2cc(S(=O)(=O)CCC(=O)N3CCCCC3)c(Cl)cc2N1 22.4 µM [rising, partial curve]
COc1ccc(N2C3=C(CC4=C2CC(C)(C)CC4=O)C(=O)CC(C)(C)C3)cc1 31.6 µM [rising, single point]
COC(=O)c1ccc(C2/C(=C(/O)c3ccc(OC)cc3)C(=O)C(=O)N2Cc2ccco2)cc1 (configuration not stated) 15.8 µM [rising, partial curve]
CC[n+]1c(/C=C2/C=C(C)CC(C)(C)C2)sc2ccc(OC)cc21 35.5 µM [rising, single point]
CS(=O)(=O)Nc1cccc(C2=NN(S(=O)(=O)c3ccccc3)C(c3cccs3)C2)c1 (configuration not stated) 22.4 µM [rising, single point]
NC(=O)/C=C\C(=O)Nc1cccc(C(F)(F)F)c1 25.1 µM [rising, partial curve]
O=C(CCCc1nc2ccccc2s1)N1CCN(c2ccccc2)CC1 22.4 µM [rising, single point]
Cc1ccc(CN(C)C(=O)c2ccc3c(c2)NC(=O)CS3)o1 25.1 µM [rising, partial curve]
Cc1nnc(-c2cccc(Br)c2)c2cn(-c3ccc(Br)cc3)nc12 8.91 µM [rising, single point]
CC1(C)CC(=O)C(C(C2=C(O)CC(C)(C)CC2=O)c2cccs2)C(=O)C1 (configuration not stated) 25.1 µM [rising, partial curve]
COc1ccc2c(c1)S/C(=C\C(=O)c1ccncc1)N2C 22.4 µM [rising, partial curve, poor fit]
O=c1ccc2cc(S(=O)(=O)NCc3ccccc3)ccc2[nH]1 15.8 µM [rising, partial curve]
COc1ccc(CCNC(=O)c2cc3c(=O)n4cccc(C)c4nc3n(Cc3ccco3)c2=N)cc1OC 31.6 µM [rising, single point]
Cc1ccc2cc(CCNS(=O)(=O)c3ccc(F)cc3)c(=O)[nH]c2c1 28.2 µM [rising, single point]
C=CCN(C(=O)Nc1ccc2oc(C)nc2c1)c1ccccc1 39.8 µM [rising, single point]
O=C(c1ccco1)N1CCN(C(=O)c2cc(-c3ccccn3)nc3ccc(Cl)cc23)CC1 4.47 µM [rising, full curve]
COc1ccc(Cc2nnc(NC(=O)Cc3cccs3)s2)cc1OC 39.8 µM [rising, single point]
CS(=O)(=O)c1ccc(C(=O)OCc2nnc(-c3ccccc3)o2)cc1[N+](=O)[O-] 25.1 µM [rising, single point]
COc1ccc(OC2OC3COC(c4ccco4)OC3C(O)C2NC(C)=O)cc1 (configuration not stated) 39.8 µM [rising, single point]
Cc1cccc2cc(C#N)c(NCCNS(=O)(=O)c3ccc4c(c3)OCCO4)nc12 35.5 µM [rising, single point]
O=S(=O)(c1cc(F)cc(F)c1)N1CCN(c2ncccn2)CC1 20 µM [rising, partial curve]
O=C(CSc1ccc(-c2ccco2)nn1)c1ccccc1 25.1 µM [rising, partial curve]
COC(=O)c1[nH]c2ccc(F)cc2c1NS(=O)(=O)c1ccc(F)c(C)c1 31.6 µM [rising, single point]
Cc1cc(N2CCCN(C)CC2)nc2cc(Cl)ccc12 39.8 µM [rising, single point]
Cn1c(=O)c2c(nc(SCCNS(=O)(=O)c3ccccc3)n2C)n(C)c1=O 31.6 µM [rising, single point]
O=S(=O)(c1ccc(F)cc1)N1CCN(S(=O)(=O)c2cccs2)CC1 1.12 µM [rising, full curve]
O=C(NC1CCCCC1)C(c1ccncc1)N(Cc1ccc2c(c1)OCO2)C(=O)c1cnsn1 (configuration not stated) 25.1 µM [rising, partial curve]
CN(C)CCCC1(O)c2ccccc2C=Cc2ccccc21 7.08 µM [rising, single point]
COc1ccc(-c2csc(NC(=O)CSc3nc(C)nc4sc(C(=O)O)c(C)c34)n2)cc1 31.6 µM [rising, single point]
CCS(=O)(=O)c1ncc(Cl)c(C(=O)Nc2ccc(S(=O)(=O)N3CCCC(C)C3)cc2)n1 (configuration not stated) 11.2 µM [rising, partial curve]
O=C(O)C1Nc2c(O)cc(Cl)c([N+](=O)[O-])c2C2C=CCC12 (configuration not stated) 0.631 µM [rising, full curve, poor fit]

Potency, inactive:
O=C(COc1ccccc1Cl)Nc1ccc(N2CCN(C(=O)c3ccccc3)CC2)cc1
COc1cccc(C(=O)Nc2ccc(F)c(F)c2F)c1
CCOC(=O)C1=C(CN2CCSCC2)NC(=O)NC1c1ccc2c(c1)OCO2 (configuration not stated)
O=c1[nH]c(NCCCO)nc2c1C1(CCCC1)Cc1ccccc1-2
CCN(CC)S(=O)(=O)c1ccc(N2CCOCC2)c(NC(=O)COc2ccc(Cl)cc2)c1
Cc1[nH][nH]c(=O)c1C(c1ccc(-c2ccc(C(=O)O)cc2)o1)c1c(C)[nH][nH]c1=O
CC(NC(=O)Cn1ccsc1=N)C12CC3CC(CC(C3)C1)C2 (configuration not stated)
O=C(O)c1ccc(NC2=C(Cl)C(=O)c3ccccc3C2=O)cc1
Cc1ccc2c3c(cccc13)-c1ccccc1C2=O
